No constants are given. Whether binding was seen depends on the method and setting. Some binding calls cover weakened binding; strength is not graded here. Sequences can lack the tags named with a protein.
B1: eGFP-Wnt1 (ligand, UniProt P04628 28-370)
chain: ANSSGRWWGIVNVASSTNLLTDSKSLQLVLEPSLQLLSRKQRRLIRQNPGILHSVSGGLQSAVRECKWQFRNRRWNCPTAPGPHLFGKIVNRGCRETAFIFAITSAGVTHSVARSCSEGSIESCTCDYRRRGPGGPDWHWGGCSDNIDFGRLFGREFVDSGEKGRDLRFLMNLHNNEAGRTTVFSEMRQECKCHGMSGSCTVRTCWMRLPTLRAVGDVLRDRFDGASRVLYGNRGSNRASRAELLRLEPEDPAHKPPSPHDLVYFEKSPNFCTYSGRLGTAGTAGRACNSSSPALDGCELLCCGRGHRTRTQRVTERCNCTFHWCCHVSCRNCTHTRVLHECL
B2: eGFP-Wnt6 (ligand, UniProt Q9Y6F9 25-365)
chain: LWWAVGSPLVMDPTSICRKARRLAGRQAELCQAEPEVVAELARGARLGVRECQFQFRFRRWNCSSHSKAFGRILQQDIRETAFVFAITAAGASHAVTQACSMGELLQCGCQAPRGRAPPRPSGLPGTPGPPGPAGSPEGSAAWEWGGCGDDVDFGDEKSRLFMDARHKRGRGDIRALVQLHNNEAGRLAVRSHTRTECKCHGLSGSCALRTCWQKLPPFREVGARLLERFHGASRVMGTNDGKALLPAVRTLKPPGRADLLYAADSPDFCAPNRRTGSPGTRGRACNSSAPDLSGCDLLCCGRGHRQESVQLEENCLCRFHWCCVVQCHRCRVRKELSLCL
B3: eGFP-Wnt7a (ligand, UniProt O00755 32-349)
chain: LGASIICNKIPGLAPRQRAICQSRPDAIIVIGEGSQMGLDECQFQFRNGRWNCSALGERTVFGKELKVGSREAAFTYAIIAAGVAHAITAACTQGNLSDCGCDKEKQGQYHRDEGWKWGGCSADIRYGIGFAKVFVDAREIKQNARTLMNLHNNEAGRKILEENMKLECKCHGVSGSCTTKTCWTTLPQFRELGYVLKDKYNEAVHVEPVRASRNKRPTFLKIKKPLSYRKPMDTDLVYIEKSPNYCEEDPVTGSVGTQGRACNKTAPQASGCDLMCCGRGYNTHQYARVWQCNCKFHWCCYVKCNTCSERTEMYTCK
B4: eGFP-Wnt8a (ligand, UniProt Q9H1J5 25-351)
chain: VNNFLITGPKAYLTYTTSVALGAQSGIEECKFQFAWERWNCPENALQLSTHNRLRSATRETSFIHAISSAGVMYIITKNCSMGDFENCGCDGSNNGKTGGHGWIWGGCSDNVEFGERISKLFVDSLEKGKDARALMNLHNNRAGRLAVRATMKRTCKCHGISGSCSIQTCWLQLAEFREMGDYLKAKYDQALKIEMDKRQLRAGNSAEGHWVPAEAFLPSAEAELIFLEESPDYCTCNSSLGIYGTEGRECLQNSHNTSRWERRSCGRLCTECGLQVEERKTEVISSCNCKFQWCCTVKCDQCRHVVSKYYCARSPGSAQSLGKGSA
B5: eGFP-Wnt9a (ligand, UniProt O14904 30-365)
chain: YFGLTGSEPLTILPLTLEPEAAAQAHYKACDRLKLERKQRRMCRRDPGVAETLVEAVSMSALECQFQFRFERWNCTLEGRYRASLLKRGFKETAFLYAISSAGLTHALAKACSAGRMERCTCDEAPDLENREAWQWGGCGDNLKYSSKFVKEFLGRRSSKDLRARVDFHNNLVGVKVIKAGVETTCKCHGVSGSCTVRTCWRQLAPFHEVGKHLKHKYETALKVGSTTNEAAGEAGAISPPRGRASGAGGSDPLPRTPELVHLDDSPSFCLAGRFSPGTAGRRCHREKNCESICCGRGHNTQSRVVTRPCQCQVRWCCYVECRQCTQREEVYTCKG
B6: eGFP-Wnt11 (ligand, UniProt O96014 25-354)
chain: IKWLALSKTPSALALNQTQHCKQLEGLVSAQVQLCRSNLELMHTVVHAAREVMKACRRAFADMRWNCSSIELAPNYLLDLERGTRESAFVYALSAAAISHAIARACTSGDLPGCSCGPVPGEPPGPGNRWGGCADNLSYGLLMGAKFSDAPMKVKKTGSQANKLMRLHNSEVGRQALRASLEMKCKCHGVSGSCSIRTCWKGLQELQDVAADLKTRYLSATKVVHRPMGTRKHLVPKDLDIRPVKDSELVYLQSSPDFCMKNEKVGSHGTQDRQCNKTSNGSDSCDLMCCGRGYNPYTDRVVERCHCKYHWCCYVTCRRCERTVERYVCK

The chains behind the UniProt entries cited, without tags or fusion partners. Residues count along the entry.
UniProt Q9EQD0, residues 27-585: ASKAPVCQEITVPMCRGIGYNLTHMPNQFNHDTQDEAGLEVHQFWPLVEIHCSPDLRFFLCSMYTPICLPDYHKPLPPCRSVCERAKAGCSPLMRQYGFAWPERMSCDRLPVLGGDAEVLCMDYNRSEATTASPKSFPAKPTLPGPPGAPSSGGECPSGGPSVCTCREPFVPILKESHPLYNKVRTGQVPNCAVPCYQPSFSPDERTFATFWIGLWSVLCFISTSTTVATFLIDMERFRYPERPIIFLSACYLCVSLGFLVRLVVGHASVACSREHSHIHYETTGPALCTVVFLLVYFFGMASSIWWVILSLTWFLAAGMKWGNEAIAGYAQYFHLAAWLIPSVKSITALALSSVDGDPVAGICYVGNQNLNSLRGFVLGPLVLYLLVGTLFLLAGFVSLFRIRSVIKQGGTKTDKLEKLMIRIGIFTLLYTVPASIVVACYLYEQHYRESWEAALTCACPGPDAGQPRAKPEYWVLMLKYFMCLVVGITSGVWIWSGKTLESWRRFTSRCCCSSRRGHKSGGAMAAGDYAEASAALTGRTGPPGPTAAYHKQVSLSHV

target: HiBiT-FZD5-mCherry (NCI-H1703 cells) (mouse) (UniProt Q9EQD0); assay: confocal microscopy of fluorescent ligand on live cells; NCI-H1703 cells stably expressing HiBiT-FZD(4,5,8,10)-mCherry incubated with eGFP-Wnt conditioned medium (1 h in the methods, 3 h in the legend of Figure 1A), then imaged

**Q.** For B1, which binding is on record?
**A.** binds

**Q.** For B2, which binding is on record?
**A.** binds

**Q.** For B3, which binding is on record?
**A.** binds

**Q.** B4 was tested. Which binding did it give?
**A.** binds

**Q.** With B5 as the binder, how does the binding read?
**A.** binds

**Q.** With B6 as the binder, how does the binding read?
**A.** no binding

Source: paper PMC12153800
